± gives the standard deviation of the averaged measurements. Laboratory Escherichia coli strains with one amino-acid change in an essential protein, pooled on minimal glucose agar with carbenicillin or gentamicin at twice the control MIC (plus kanamycin and chloramphenicol for the plasmids), 48 h. Fold change of barcode share against drug-free plates; higher = less susceptible. Active = above 20 in both replicates (the paper's putatively resistant). '<' = one read or none on drug, '>' = one read or none on a drug-free plate. Shares are relative, so most strains fall below 1 when a few take over. Listed are strains with at least 15 reads on both drug-free plates, and hits; most hits rest on fewer reference reads. Replicate rank correlation about 0.5. Edits are read from barcodes.
B1: proA M277D (protein)
chain: MLEQMGIAAKQASYKLAQLSSREKNRVLEKIADELEAQSEIILNANAQDVADARANGLSEAMLDRLALTPARLKGIADDVRQVCNLADPVGQVIDGGVLDSGLRLERRRVPLGVIGVIYEARPNVTVDVASLCLKTGNAVILRGGKETCRTNAATVAVIQDALKSCGLPAGAVQAIDNPDRALVSEMLRMDKYIDMLIPRGGAGLHKLCREQSTIPVITGGIGVCHIYVDESVEIAEALKVIVNAKTQRPSTCNTVETLLVNKNIADSFLPALSKQDAESGVTLHADAAALAQLQAGPAKVVAVKAEEYDDEFLSLDLNVKIVSDLDDAIAHIREHGTQHSDAILTRDMRNAQRFVNEVDSSAVYVNASTRFTDGGQFGLGAEVAVSTQKLHARGPMGLEALTTYKWIGIGDYTIRA
B2: proA I333W (protein)
chain: MLEQMGIAAKQASYKLAQLSSREKNRVLEKIADELEAQSEIILNANAQDVADARANGLSEAMLDRLALTPARLKGIADDVRQVCNLADPVGQVIDGGVLDSGLRLERRRVPLGVIGVIYEARPNVTVDVASLCLKTGNAVILRGGKETCRTNAATVAVIQDALKSCGLPAGAVQAIDNPDRALVSEMLRMDKYIDMLIPRGGAGLHKLCREQSTIPVITGGIGVCHIYVDESVEIAEALKVIVNAKTQRPSTCNTVETLLVNKNIADSFLPALSKQMAESGVTLHADAAALAQLQAGPAKVVAVKAEEYDDEFLSLDLNVKIVSDLDDAIAHWREHGTQHSDAILTRDMRNAQRFVNEVDSSAVYVNASTRFTDGGQFGLGAEVAVSTQKLHARGPMGLEALTTYKWIGIGDYTIRA
B3: proA I333A (protein)
chain: MLEQMGIAAKQASYKLAQLSSREKNRVLEKIADELEAQSEIILNANAQDVADARANGLSEAMLDRLALTPARLKGIADDVRQVCNLADPVGQVIDGGVLDSGLRLERRRVPLGVIGVIYEARPNVTVDVASLCLKTGNAVILRGGKETCRTNAATVAVIQDALKSCGLPAGAVQAIDNPDRALVSEMLRMDKYIDMLIPRGGAGLHKLCREQSTIPVITGGIGVCHIYVDESVEIAEALKVIVNAKTQRPSTCNTVETLLVNKNIADSFLPALSKQMAESGVTLHADAAALAQLQAGPAKVVAVKAEEYDDEFLSLDLNVKIVSDLDDAIAHAREHGTQHSDAILTRDMRNAQRFVNEVDSSAVYVNASTRFTDGGQFGLGAEVAVSTQKLHARGPMGLEALTTYKWIGIGDYTIRA
B4: proA L402A (protein)
chain: MLEQMGIAAKQASYKLAQLSSREKNRVLEKIADELEAQSEIILNANAQDVADARANGLSEAMLDRLALTPARLKGIADDVRQVCNLADPVGQVIDGGVLDSGLRLERRRVPLGVIGVIYEARPNVTVDVASLCLKTGNAVILRGGKETCRTNAATVAVIQDALKSCGLPAGAVQAIDNPDRALVSEMLRMDKYIDMLIPRGGAGLHKLCREQSTIPVITGGIGVCHIYVDESVEIAEALKVIVNAKTQRPSTCNTVETLLVNKNIADSFLPALSKQMAESGVTLHADAAALAQLQAGPAKVVAVKAEEYDDEFLSLDLNVKIVSDLDDAIAHIREHGTQHSDAILTRDMRNAQRFVNEVDSSAVYVNASTRFTDGGQFGLGAEVAVSTQKLHARGPMGLEAATTYKWIGIGDYTIRA
B5: proA I333Q (protein)
chain: MLEQMGIAAKQASYKLAQLSSREKNRVLEKIADELEAQSEIILNANAQDVADARANGLSEAMLDRLALTPARLKGIADDVRQVCNLADPVGQVIDGGVLDSGLRLERRRVPLGVIGVIYEARPNVTVDVASLCLKTGNAVILRGGKETCRTNAATVAVIQDALKSCGLPAGAVQAIDNPDRALVSEMLRMDKYIDMLIPRGGAGLHKLCREQSTIPVITGGIGVCHIYVDESVEIAEALKVIVNAKTQRPSTCNTVETLLVNKNIADSFLPALSKQMAESGVTLHADAAALAQLQAGPAKVVAVKAEEYDDEFLSLDLNVKIVSDLDDAIAHQREHGTQHSDAILTRDMRNAQRFVNEVDSSAVYVNASTRFTDGGQFGLGAEVAVSTQKLHARGPMGLEALTTYKWIGIGDYTIRA
B6: proA L402W (protein)
chain: MLEQMGIAAKQASYKLAQLSSREKNRVLEKIADELEAQSEIILNANAQDVADARANGLSEAMLDRLALTPARLKGIADDVRQVCNLADPVGQVIDGGVLDSGLRLERRRVPLGVIGVIYEARPNVTVDVASLCLKTGNAVILRGGKETCRTNAATVAVIQDALKSCGLPAGAVQAIDNPDRALVSEMLRMDKYIDMLIPRGGAGLHKLCREQSTIPVITGGIGVCHIYVDESVEIAEALKVIVNAKTQRPSTCNTVETLLVNKNIADSFLPALSKQMAESGVTLHADAAALAQLQAGPAKVVAVKAEEYDDEFLSLDLNVKIVSDLDDAIAHIREHGTQHSDAILTRDMRNAQRFVNEVDSSAVYVNASTRFTDGGQFGLGAEVAVSTQKLHARGPMGLEAWTTYKWIGIGDYTIRA

Target: Escherichia coli (laboratory strain)
Assay: barcode share on antibiotic plates over drug-free plates; higher = less susceptible
Settings: antibiotic: carbenicillin; 2× MIC (3.1 µg/mL)
Procedure: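 A pool of E. coli strains, each edited to carry one amino-acid change in an essential protein, was grown for 48 h on minimal glucose agar with or without antibiotic; strain barcodes were sequenced; mean of two replicates.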

Protein | fold change of barcode share
B1 | 0.338 ± 0.17
B2 | 1.91 ± 0.5
B3 | 0.37 ± 0.11
B4 | 0.338 ± 0.016
B5 | 0.507 ± 0.22
B6 | > 26.2 [active]

Same assay, conditions: antibiotic: gentamicin; 2× MIC (MIC 0.45 µg/mL)

Protein | fold change of barcode share
B1 | 0.0138 ± 0.005
B2 | 0.0138 ± 0.0061
B3 | 0.00505 ± 8.2e-05
B4 | 0.0052 ± 0.0045
B5 | 0.0101 ± 0.001

From the supplement of paper PMC11876631
